Experimental findings from ChEMBL document CHEMBL4888484, “Replenishing the malaria drug discovery pipeline: Screening and hit evaluation of the MMV Hit Generation Library 1 (HGL1) against asexual blood stage Plasmodium falciparum ,using a nano luciferase reporter read-out” (2022) are described below.

Out of some 150,000 compounds screened, about 540 (0.36%) showed an effect of 50% or more. The list shows a part of the results.

The assay relates to Plasmodium falciparum. Description: Primary screen in NF54 nanoGlo assay, in single point, at 2uM, 72h; a lower Z score goes with more inhibition. Conditions: timepoint 72 hour. Type of assay: functional, Erythrocyte.
On to `Cc1noc(C)c1Cc1nc(C2(c3ccccc3)CC2)nn1CCCO`, for which the “% Inhibition” value was 7% and the Z score is -0.91.
Turning to `Cn1cc(CN2Cc3[nH]c4ccccc4c3C[C@H]2C(=O)O)cn1`, the “% Inhibition” value was 3% and the Z score is -0.24.
For `CCc1ccccc1NC(=O)C1CCN(c2ncnc3oc(C)c(C)c23)CC1`, the “% Inhibition” value is given as 8% and the Z score was -0.8.
As to `O=C1N[C@@]2(CCCCc3ccccc32)C(=O)N1Cc1cccc(C(F)(F)F)c1`, the “% Inhibition” value is 4% and the Z score is -0.84.
Turning to `CN1CC[C@@H](c2nc(-c3ccc(OC(F)F)cn3)no2)S1(=O)=O`, the “% Inhibition” value is on record as -15% and the Z score amounted to 2.77.
`O=C(NC[C@@H](c1ccco1)N1CCCC1)c1cncc(Br)c1`: the “% Inhibition” value is given as -8% and the Z score is 0.9.
As to `C[C@H](NS(C)(=O)=O)c1cccc(Cl)c1`, the “% Inhibition” value is -3% and the Z score worked out at 0.37.
On the same counts, the results for `OCC[C@]1(NCc2sccc2Cl)CCOC1` are -9% and 1.2.
Consider `Cc1cnc(CCNC(=O)C2CCC2)n1CC1CC1`, for which the “% Inhibition” value was -15% and the Z score is recorded as 1.67.
The matching figures for `Cc1cc(N2CCC(NC(=O)[C@]3(C)CCCN3C(=O)c3ccccc3)CC2)[nH]n1`: -5% and 0.9.
Consider `CCN(CC(=O)Nc1ccc2c(c1)OCCO2)C(=O)c1ccc(C)s1`, for which the “% Inhibition” value was -3% and the Z score was 0.62.
The matching figures for `CCCN1CCC(N2CCN(c3nc4c(C)cccc4cc3CO)CC2)CC1`: -7% and 1.38.
For `CCN(C(=O)c1cccc(-c2nc(OC)cc(OC)n2)c1)C1CCOCC1`, the “% Inhibition” value is reported as -11% and the Z score was found to be 2.07.
As to `Cc1ccc(S(=O)(=O)NC(=O)c2cccc(-c3noc(C4CC4)n3)c2)cn1`, the “% Inhibition” value was -19% and the Z score is given as 2.8.
For `Cc1nc(C#N)c(C#N)n1Cc1nc(-c2ccco2)no1`, the “% Inhibition” value came out at 6% and the Z score is given as -0.83.
With `CCCc1sc(C(=O)Nc2nnn[nH]2)cc1CC`, the “% Inhibition” value was 7% and the Z score was -1.3.
On to `c1cc(-c2nc(-c3ccc4nncn4c3)no2)cs1`, for which the “% Inhibition” value is -15% and the Z score turned out to be 2.49.
As to `Cc1noc2nc(-c3ccccc3)cc(C(=O)N[C@H](c3ccc(Cl)cc3)c3nccn3C)c12`, the “% Inhibition” value turned out to be 19% and the Z score is on record as -2.36.
Turning to `Cc1ccc(CCN(C[C@H]2CCCO2)c2ccc3nnnn3n2)cc1`, the “% Inhibition” value was -10% and the Z score was found to be 1.29.
In the case of `O=C(Nc1ccccc1)c1c([O-])n(-c2ccccc2)n[n+]1CCN1CCCCC1`, the “% Inhibition” value was 2% and the Z score is -0.33.
As to `Cc1cc(NC(=O)c2cnc(OC3CCOCC3)c(Cl)c2)no1`, the “% Inhibition” value is -5% and the Z score is 1.02.
With `O=C(Nc1ccccc1F)c1nnc(COc2ccc(C(=O)N3CCCCCC3)cc2)s1`, the “% Inhibition” value was -34% and the Z score is on record as 3.09.
Turning to `Cc1ncc(C(=O)NCCc2cscn2)c(O)c1Br`, the “% Inhibition” value is recorded as -13% and the Z score came to 1.28.
On the same counts, the results for `CN(C(=O)c1ccc(N2CCCCS2(=O)=O)cc1)C1CCCCC1O` (stereo not drawn) are -10% and 1.76.
On the same counts, the results for `Cn1ccnc1CN1CCOC[C@H](Oc2ccc(S(C)(=O)=O)cc2)C1` are -12% and 1.91.
The matching figures for `Cc1nnc2c3ccc(Cl)cc3nc(N3CCC(Cc4ccccc4)CC3)n12`: -4% and 0.68.
With `C#CCCCCC(=O)Nc1ncccc1Cl`, the “% Inhibition” value was 30% and the Z score is reported as -0.86.
On the same counts, the results for `CC(=O)Nc1ccc(S(=O)(=O)N[C@H]2CO[C@H]3[C@@H]2OC[C@H]3OC(=O)Nc2ccccc2)cc1` are 26% and -3.04.
In the case of `CCCc1cc(-c2nc([C@H]3CCOC3)no2)cs1`, the “% Inhibition” value is given as -17% and the Z score is 2.17.
For `Nc1nnc(N[C@H]2CCc3ccccc32)[nH]1`, the “% Inhibition” value is -11% and the Z score was found to be 1.35.
As for `Cc1cc(=O)n(CC(=O)N(C)c2cccc(Cl)c2)c(Nc2cccc(F)c2)n1`, the “% Inhibition” value was -11% and the Z score worked out at 1.58.
For `CCCCNC(=O)c1nc2cccnc2n(C)c1=O`, the “% Inhibition” value is given as 1% and the Z score is -0.15.
On the same counts, the results for `Cc1nc([C@H]2CCCN2CCN2C(=O)c3ccccc3C2=O)cs1` are -16% and 1.98.
For the compound `COc1ccc(/C=C/CN2CCC[C@H](CNC(=O)c3cc(C(F)F)[nH]n3)C2)cc1`, the “% Inhibition” value was determined as 4% and the Z score is given as -0.64.
For the compound `CC1(C)NC(=O)N(CCCn2cc(Cl)cn2)C1=O`, the “% Inhibition” value is given as -12% and the Z score worked out at 1.19.
The matching figures for `Cc1cnc(CN2C[C@]3(CCCN(c4cc(C(N)=O)ccn4)C3)CCC2=O)cn1`: -17% and 2.19.
The matching figures for `Cc1ccc2c(c1)c(-c1cc(NCC(=O)O)nc3[nH]ccc13)nn2C`: 4% and -0.7.
Regarding `Cc1cncc(Br)c1NC(=O)C(F)F`, the “% Inhibition” value is reported as -8% and the Z score was found to be 1.58.
On to `CC(C)[C@@H]1N(C(=O)c2cn(CC3CC3)nn2)CC12CCCC2`, for which the “% Inhibition” value is reported as -14% and the Z score came out at 2.08.
On the same counts, the results for `CC(=O)N1CCN(CC(=O)N2CCC[C@H]2c2cccs2)CC1` are -1% and 0.21.
On the same counts, the results for `C[C@H]1CN(c2ncnc3c2CN(C)CC3)CC(C)(C)O1` are -3% and 0.39.
For `CC(C)n1cc(NC(=O)NCCOc2ccccc2)nn1`, the “% Inhibition” value is given as -2% and the Z score stood at 0.21.
For `Cc1cc(CN(C)S(=O)(=O)[C@H]2CCOC2)no1`, the “% Inhibition” value is reported as 4% and the Z score is given as -0.65.
`COCCN(C)CC(=O)N1CC[C@@H]2OCc3cccc(c3)Oc3cncc(c3)C(=O)NCCCC(=O)N[C@H]2C1`: the “% Inhibition” value was -10% and the Z score is listed as 1.28.
Turning to `Cc1sc(CN2C(=O)CCC2=O)nc1-c1c(F)cc(F)cc1F`, the “% Inhibition” value is -9% and the Z score was 0.85.
With `COc1ccccc1C1=NS(=O)(=O)N(C)C(C(=O)N(C)Cc2ccccc2)=C1`, the “% Inhibition” value turned out to be 2% and the Z score is listed as -0.39.
Turning to `CC(CCn1cncn1)NC(C)c1cc2cc(Cl)ccc2o1` (stereo not drawn), the “% Inhibition” value is 12% and the Z score is -1.27.
On to `CN(C)C(=O)C1CCC(CNC2CCCC(C(F)(F)F)C2)O1` (stereo not drawn), for which the “% Inhibition” value was determined as 6% and the Z score is -0.93.
Consider `COc1ccc(C(=O)N2C[C@@H]3C[C@H](C2)c2c(NC(=O)c4ccc5c(c4)OCO5)ccc(=O)n2C3)cc1`, for which the “% Inhibition” value is on record as 3% and the Z score is -0.4.
The matching figures for `Cc1noc(C)c1S(=O)(=O)N1CC(=O)Nc2ccccc21`: 12% and -1.43.
For the compound `NC[C@H]1CCCCN1C(=O)c1cc(Oc2ccccc2)ccn1`, the “% Inhibition” value is -3% and the Z score came to 0.49.
For `Cc1c(C(=O)N2CCCCCC2)sc2nc(-c3ccccc3)cn12`, the “% Inhibition” value is given as 12% and the Z score was -1.52.
Take `Cc1csc(C(=O)NCc2cn(-c3cccnc3)nn2)c1`: the “% Inhibition” value is -7% and the Z score is given as 1.08.
The matching figures for `CC1(C)CN(C(=O)c2cncc(O)c2)C[C@@](C)(C(F)(F)F)O1`: -21% and 3.03.

By % Inhibition is commonly meant the relative decrease from the control value, in per cent.
